Assay results reported in the supplement of paper PMC10126150.
Values marked as one replicate rest on one cluster of the flow cell; about a third of the high ones do not repeat.

tested on: ATP; assay: switch fluorescence ratio, 500 uM ATP over buffer (Cy3 cluster intensity, sum of 5 cycles each) (fold (ratio)); higher = stronger signal-on switching upon ATP binding; sequences stand for … in TCGTCGGCAGCGTCAGATGTGTATAAGAGACAGTTTTTTTTTTTTTTTTTTTTTTTTT…TC; settings: aptamer strand: ATP DNA aptamer (quencher-CACCTGGGGGAGTATTGCGGAGGAAGG + anchor), 100 nM annealed; ATP concentration: 500 uM; one replicate
How it was run: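 For every switch-domain sequence, the fluorescence ratio is the mean of per-cluster values, each being summed target-cycle Cy3 intensity over summed buffer-cycle Cy3 intensity. Clusters outside 100-1000 RFU were excluded. On a modified Illumina MiSeq flow-cell, the Cy3-labelled switching-strand clusters were annealed to 100 nM quencher-labelled ATP aptamer, imaged in selection buffer and then after 15 min with 500 uM ATP at 22 °C. Five such cycles were run, with NaOH stripping and re-annealing between them.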
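Note: ATP exposure 15 min at 22 °C before imaging.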

Sequence	switch fluorescence ratio
TAACCCTACC	1.37
TAACCCTGTG	0.974
TAACCGCCAG	1.3
TAACCGCCGA	1.13
TAACCTAATT	0.979
TAACGAAACG	0.993
TAACGCGTTT	1.02
TAACGGCGGA	0.976
TAACGGTTAA	1.01
TAACGTAAAT	0.997
TAACGTGCCA	1.01
TAACGTTCTA	1.01
TAACTACACG	1.29
TAACTACTAC	1.17
TAACTCACAT	1.24
TAACTCGGAG	0.947
TAACTCGGGG	1.02
TAACTCGTCC	0.974
TAACTGACTT	1.04
TAACTTGCGC	1.05
TAAGAAATGC	1.24
TAAGAACAG	0.993
TAAGAATTTA	1
TAAGACAAGC	1
TAAGACAGCT	0.986
TAAGACATTC	0.999

Sequence	switch fluorescence ratio
TAAGACCCAT	1
TAAGACTAAA	0.985
TAAGAGCTAC	1.17
TAAGAGGGAA	1.03
TAAGAGTCCC	0.97
TAAGATAGCG	1.01
TAAGATCCAT	1.03
TAAGATCGGT	1.02
TAAGATTGGT	0.974
TAAGCAAGTT	1.01
TAAGCAGTAT	1.25
TAAGCAGTTG	0.964
TAAGCCAGC	1.01
TAAGCCTAAG	0.992
TAAGCTACTG	1.11
TAAGCTATGA	1.04
TAAGCTGATG	1.15
TAAGGAAAA	0.991
TAAGGAAACC	1.02
TAAGGCGCTC	0.988
TAAGGGAGGA	0.98
TAAGGGCTAC	1.09
TAAGGTCGGG	0.995
TAAGGTTACC	0.972
TAAGGTTAGT	1.01
TAAGTAAACC	1.02

Sequence	switch fluorescence ratio
TAAGTATCCT	1.05
TAAGTATGTG	1.01
TAAGTCGGC	0.97
TAAGTGACTC	1.04
TAAGTGCTTC	1.02
TAAGTGTACC	1.1
TAAGTGTGAG	0.969
TAAGTTATCC	1.03
TAAGTTCTCC	1.04
TAAGTTGAGG	1.01
TAAGTTGGCC	0.972
TAAGTTGTCT	1.04
TAAGTTTATG	0.95
TAAGTTTTAC	1.01
TAAGTTTTCT	0.934
TAATAAAGCG	0.984
TAATAAAGTC	0.951
TAATAACAGG	1.01
TAATAAGGAC	1.08
TAATAATGAC	0.994
TAATACTCGG	1.09
TAATAGAACT	1.01
TAATAGTA	1
TAATATAATC	1.02
TAATATAGCA	1.02
TAATATCCGT	0.934

Sequence	switch fluorescence ratio
TAATATCTGA	0.993
TAATATGAGT	1.01
TAATATTTTC	0.968
TAATCACAGA	1.01
TAATCAGTC	0.962
TAATCCGTGG	0.997
TAATCGGGCA	1.01
TAATCGGTAA	0.99
TAATCTTAAG	1
TAATGAAAG	1.01
TAATGCAAGT	1
TAATGCGATC	1.11
TAATGCTAGC	1.01
TAATGGACCA	1.03
TAATGGGCCA	1
TAATGTAAAT	1.04
TAATGTAATC	0.978
TAATTACCTT	1.08
TAATTACTAA	0.974
TAATTAGTTG	1.1
TAATTGGACC	1.01
TAATTGGATC	1.01
TAATTGGGG	0.984
TAATTGGT	0.982
TAATTTAGC	1.06
TAATTTCCAC	1.05

Sequence	switch fluorescence ratio
TAATTTGCGG	1.11
TAATTTTTAC	1.03
TACAAAGCCG	1.08
TACAAAGGGG	1.02
TACAACAAAA	1.07
TACAACGACG	1.04
TACAAGAACC	1.32
TACAAGACTA	1.07
TACAATATAA	1.04
TACAATCGC	1.02
TACACAATCG	1
TACACGATCC	1.03
TACACGATGG	1.09
TACACTACA	1.32
TACACTCGTA	1.06
TACACTGATG	1.04
TACACTGGCC	0.931
TACAGAGGA	1.03
TACAGCATGT	0.953
TACAGCCCAA	0.892
TACAGCCTTT	1.17
TACAGCGCTC	1
TACAGGGATT	1.01
TACAGTCCAA	0.999
TACAGTT	0.989
TACATACTTA	1.31

Sequence	switch fluorescence ratio
TACATAGGGG	1.02
TACATCTAGG	0.946
TACATGTGTA	1.02
TACATTATGT	0.995
TACATTGTT	1.02
TACCAAAATT	0.984
TACCAAGGAT	1
TACCAAGGTC	1.03
TACCAAGTTT	1.02
TACCAATCAG	0.996
TACCATTTTC	0.979
TACCCGGACT	1.03
TACCCGGGAT	1.02
TACCCTACAG	1.22
TACCGCGTTC	1.5
TACCGGCAT	1.04
TACCGGCCTA	1.03
TACCGGGATT	1.02
TACCGGGGA	1
TACCGTACGT	1.31
TACCGTGAGG	1.02
TACCTCATCT	1.12
TACCTGGTGC	2.29
TACCTTTCCG	1.07
TACGAACCGG	1.19
TACGAAGGCG	0.983

Sequence	switch fluorescence ratio
TACGAGAAGA	1.03
TACGAGTTAG	1.01
TACGATAACT	1.15
TACGATAGTA	1.02
TACGATTGGT	1
TACGCACCCC	1.08
TACGCCTAAT	1.04
TACGCGCCAT	1.01
TACGCTGGTG	1.05
TACGGACG	1.12
TACGGATTAA	1.01
TACGGCCCCC	1.04
TACGGCCGTT	0.983
TACGGCGACA	1.13
TACGGCTACG	1
TACGGGATTA	1.02
TACGGGTGCG	0.959
TACGGTGAGT	0.997
TACGTACTAT	1.47
TACGTCATAT	1.14
TACGTCCATC	1.03
TACGTCCGAA	1.07
TACGTCGTGT	1.03
TACGTGCAGG	1
TACGTGCCGT	0.995
TACGTGTACG	1

Sequence	switch fluorescence ratio
TACGTTCTTT	1
TACGTTGGA	1.03
TACGTTGGTG	1.04
TACGTTTCGG	0.979
TACTAAATGC	1.12
TACTAACCTG	1.03
TACTAATGGT	0.99
TACTACGGTA	1.14
TACTACTACT	1.18
TACTAGAATT	1
TACTAGGTCA	1
TACTAGTCGT	1.02
TACTATAACC	1.09
TACTATGGGT	1.04
TACTATTAAC	1.04
TACTCACGGT	1.39
TACTCAGGCG	1.1
TACTCAGGGG	1.01
TACTCAGTAG	1.01
